Source: article PMC4336329 (PLoS ONE, 2015)
Out of some 310,000 compounds screened, about 14,000 (4.5%) showed an effect of 50% or more. The effect is printed as a negative number. Some of the results follow.

Target: human ether-à-go-go-related gene (hERG) potassium channel (human, UniProt Q12809)
Assay: primary screen, population patch clamp on CHO cells stably expressing hERG
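Further: peak tail current of the secondary pulse compared with the same well before compound.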

Sequence of human ether-à-go-go-related gene (hERG) potassium channel (Q12809 whole entry, looked up): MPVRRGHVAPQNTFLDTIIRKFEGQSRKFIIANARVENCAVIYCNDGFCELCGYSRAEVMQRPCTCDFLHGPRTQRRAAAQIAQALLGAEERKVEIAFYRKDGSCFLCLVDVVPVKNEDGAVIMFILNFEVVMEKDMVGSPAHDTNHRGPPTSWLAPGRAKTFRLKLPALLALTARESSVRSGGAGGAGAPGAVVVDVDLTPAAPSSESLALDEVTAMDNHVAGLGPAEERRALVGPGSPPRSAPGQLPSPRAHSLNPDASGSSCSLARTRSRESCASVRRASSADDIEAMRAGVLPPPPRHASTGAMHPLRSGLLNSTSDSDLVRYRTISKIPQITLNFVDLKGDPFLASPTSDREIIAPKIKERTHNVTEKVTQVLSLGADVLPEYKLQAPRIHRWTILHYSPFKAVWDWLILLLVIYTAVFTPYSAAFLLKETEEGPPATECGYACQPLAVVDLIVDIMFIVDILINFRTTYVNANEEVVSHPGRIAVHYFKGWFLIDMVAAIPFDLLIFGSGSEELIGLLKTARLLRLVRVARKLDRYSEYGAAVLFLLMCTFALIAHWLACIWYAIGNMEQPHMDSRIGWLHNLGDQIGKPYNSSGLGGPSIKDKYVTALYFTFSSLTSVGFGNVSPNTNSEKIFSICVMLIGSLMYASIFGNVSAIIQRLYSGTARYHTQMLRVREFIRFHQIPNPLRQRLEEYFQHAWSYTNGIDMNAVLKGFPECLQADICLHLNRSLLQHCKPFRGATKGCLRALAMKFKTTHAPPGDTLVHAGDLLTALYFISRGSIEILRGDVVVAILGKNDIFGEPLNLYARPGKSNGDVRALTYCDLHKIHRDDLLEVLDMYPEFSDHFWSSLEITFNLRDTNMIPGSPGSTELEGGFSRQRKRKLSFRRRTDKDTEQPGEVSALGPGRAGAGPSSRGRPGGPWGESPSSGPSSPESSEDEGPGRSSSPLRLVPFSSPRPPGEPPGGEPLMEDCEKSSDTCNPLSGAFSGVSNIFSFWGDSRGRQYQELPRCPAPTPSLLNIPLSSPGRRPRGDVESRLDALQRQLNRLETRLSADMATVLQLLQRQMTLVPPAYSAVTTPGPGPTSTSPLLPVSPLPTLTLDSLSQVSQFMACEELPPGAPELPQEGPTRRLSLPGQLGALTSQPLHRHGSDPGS

First: Cc1ccc(S(=O)(=O)Cn2nnnc2C(c2ccc(F)cc2)N2CCC(C(N)=O)CC2)cc1 (stereo not drawn)
Second: Cc1ccc(S(=O)(=O)n2nc(OC(=O)c3ccccc3C)cc2N)cc1
The “hERG current change (%, negative = inhibition) at 10uM” value of the first is lower: -44.1% for the first, 10.8% for the second.

Going from `COc1ccc(C2C3=C(CC(C)(C)CC3=O)N(C)C3=C2C(=O)CC(C)(C)C3)cc1OC` to `CCOc1ccc(C2NC(=O)NC(c3ccccc3)=C2C(C)=O)cc1OC` (stereo not drawn), the “hERG current change (%, negative = inhibition) at 10uM” value rises from 4.58% to 15.7%.

First: Cc1ccc(-c2nc(CN(C)Cc3ccc4nccnc4c3)c(C)o2)s1
Second: Cc1cccc(C)c1OCc1nc2ccccc2[nH]1
The “hERG current change (%, negative = inhibition) at 10uM” value of the first is lower: -10.3% for the first, -0.773% for the second.

Going from `NC(=O)C1CC(=O)N(c2ccc(OCc3ccc(Cl)cc3Cl)cc2)C1` (stereo not drawn) to `CN1CSC2=C(C#N)C(c3cccc(OCc4ccccc4)c3)CC(=O)N2C1` (stereo not drawn), the “hERG current change (%, negative = inhibition) at 10uM” value falls from -4.2% to -6.57%.

Going from `O=C1CCCN1CC(O)CS(=O)(=O)c1ccc(Cl)cc1` (stereo not drawn) to `CCCN1CCN(c2ccc(S(N)(=O)=O)cc2[N+](=O)[O-])CC1`, the “hERG current change (%, negative = inhibition) at 10uM” value falls from 16.7% to -31.4%.

Compared with `CSc1cccc(NC(=S)N2CCC(N(C)C3CCCCC3)CC2)c1`, `OCCC1CN(Cc2cccn2-c2ccccn2)CCN1C1CCCCC1` (stereo not drawn) is higher in “hERG current change (%, negative = inhibition) at 10uM” value: -64.4% for the first, -57.1% for the second.

Compared with `NC(=O)C1CCCN(C(=O)c2ccc(S(=O)(=O)N3CCCCCC3)cc2)C1` (stereo not drawn), `CC1CCCCC1NC(=O)c1cc(S(=O)(=O)N2CCCCC2)ccc1N1CCOCC1` (stereo not drawn) is lower in “hERG current change (%, negative = inhibition) at 10uM” value: -6.23% for the first, -9.14% for the second.

Going from `CCOC(=O)c1oc2ccccc2c1COC(=O)CNC(=O)c1ccc(C)cc1` to `COc1ccccc1C(=O)NC(=O)COC(=O)c1nc2nc(C)cc(C)n2n1`, the “hERG current change (%, negative = inhibition) at 10uM” value rises from -18.7% to 8.79%.

First: CCc1nnc(NC(=O)c2cc(S(=O)(=O)N(CC)CC)ccc2Cl)s1
Second: CCN(CC)S(=O)(=O)c1ccc(N2CCN(c3ccccc3OC)CC2)c(N)c1
The “hERG current change (%, negative = inhibition) at 10uM” value of the first is lower: -7.31% for the first, 8.52% for the second.

Going from `CCn1c(=O)cc(SCC(=O)N2CCN(C(=O)c3ccco3)CC2)c2ccccc21` to `Cn1c(=O)cc(SCC(=O)NCc2cccnc2)c2ccccc21`, the “hERG current change (%, negative = inhibition) at 10uM” value rises from -31.8% to 5.03%.

Going from `COc1cc(C(=O)OCC(=O)Nc2sccc2C(N)=O)cc(OC)c1OC` to `COc1cc(CC(=O)N2C[C@H]3C[C@@H](C2)c2cccc(=O)n2C3)cc(OC)c1OC`, the “hERG current change (%, negative = inhibition) at 10uM” value falls from 46.2% to 6.29%.

First: O=C(/C=C/c1ccccc1)c1cc(Br)ccc(=O)c1O
Second: NC(=O)c1cc2ccc(O)cc2oc1=NCc1ccccc1
The “hERG current change (%, negative = inhibition) at 10uM” value of the first is higher: -0.716% for the first, -18.8% for the second.

Going from `O=C1C(Cl)=C(NCC2CCCO2)C(=O)N1C1CCCCC1` (stereo not drawn) to `Cc1ccc(S(=O)(=O)N(C)C)cc1NC(=O)COC(=O)CCC1CCCCC1`, the “hERG current change (%, negative = inhibition) at 10uM” value falls from 8.8% to 2.99%.

First: NC(=O)C1(NC(=O)[C@@H]2CC3(CC(c4cccc(NC(=O)[C@@H]5CCC(=O)N5)c4)=NO3)CN2C(=O)c2cnccn2)CC1 (stereo partly drawn)
Second: COc1cccc(NC(=O)CSc2nnc(COc3ccc4c(c3)CCCC4)o2)c1
The “hERG current change (%, negative = inhibition) at 10uM” value of the first is higher: 10.3% for the first, 5.23% for the second.

Going from `CC(C)OCCCN(C)C1CCN(S(=O)(=O)c2ccc(-c3ccc(=O)[nH]n3)s2)CC1` to `COC(=O)C1=C(C)N(CCCC(=O)O)C(=O)NC1c1ccc([N+](=O)[O-])cc1` (stereo not drawn), the “hERG current change (%, negative = inhibition) at 10uM” value rises from -35.8% to 14.6%.

Compared with `CCOc1ccc(C(C)=O)cc1N1C(=O)C2C3C=CC(C3)C2C1=O` (stereo not drawn), `CCOC(=O)c1c(NC(=O)c2ccc(N3C(=O)[C@@H]4[C@H](C3=O)[C@H]3C=C[C@@H]4C3)cc2)sc2c1CC(C)CC2` (stereo partly drawn) is higher in “hERG current change (%, negative = inhibition) at 10uM” value: 8.85% for the first, 22.9% for the second.

Going from `CCc1ccccc1NC(=O)CC(O)(C(=O)OC)C(F)(F)F` (stereo not drawn) to `CCC1(c2ccccc2)NC(=O)N(CC(=O)Nc2cccnc2Cl)C1=O` (stereo not drawn), the “hERG current change (%, negative = inhibition) at 10uM” value rises from 13.3% to 18.1%.

Going from `CCOc1ccc(NC(=O)CSc2ncn[nH]2)c([N+](=O)[O-])c1` to `O=C(CCC(=O)OCc1cccc([N+](=O)[O-])c1)Nc1ccc(F)cc1`, the “hERG current change (%, negative = inhibition) at 10uM” value rises from 10.6% to 12.5%.

First: COc1ccc(CCNC(=O)CCCCCn2c(SCC(N)=O)nc3cc4c(cc3c2=O)OCO4)cc1OC
Second: COc1ccc2oc(=O)c(C(=O)NCc3ccc4c(c3)OCO4)cc2c1
The “hERG current change (%, negative = inhibition) at 10uM” value of the first is lower: -2.91% for the first, 12.7% for the second.

Going from `CC(C)(C)c1ccc(Oc2ccc(N)cc2)cc1` to `CC(C)(C)c1ccc(N2C(=O)CC(C/C=C/c3ccccc3)C2=O)cc1` (stereo not drawn), the “hERG current change (%, negative = inhibition) at 10uM” value rises from 8.32% to 9.68%.

First: COC(=O)C1CN(C(=O)C(C)Oc2ccc(C)c(C)c2)c2ccccc2O1 (stereo not drawn)
Second: Cc1ccc(C)c(NC(=O)C2COc3ccccc3O2)c1 (stereo not drawn)
The “hERG current change (%, negative = inhibition) at 10uM” value of the first is lower: -37.5% for the first, 14.4% for the second.

First: CC(=O)c1cc2c(cc1NC(=O)CN1CCCCC1C)OCO2.O=C(O)C(=O)O (stereo not drawn)
Second: COC(=O)C1CSC(C(=O)OC)N1C(=O)CN1CCN(c2ccc(OC)cc2)CC1 (stereo not drawn)
The “hERG current change (%, negative = inhibition) at 10uM” value of the first is lower: 0.64% for the first, 4.54% for the second.

First: O=C1c2cccc(Cl)c2C(=O)N1c1ccccn1
Second: On1c(-c2ccccc2Cl)nc2ccccc21
The “hERG current change (%, negative = inhibition) at 10uM” value of the first is lower: 9.65% for the first, 15.2% for the second.

Going from `COc1ccc(NC(=O)CCSc2ccc(C)cc2)cc1` to `COc1ccc(NC(=O)CSc2nc3ccccc3nc2N2CCCCC2)cc1`, the “hERG current change (%, negative = inhibition) at 10uM” value falls from -3.34% to -4.58%.

First: Br.Cc1nc(-c2ccc(C(=O)O)cc2)cs1
Second: COc1ccc(C(=O)Nc2ccc(F)cc2F)cc1
The “hERG current change (%, negative = inhibition) at 10uM” value of the first is higher: 7.39% for the first, -10% for the second.

Going from `CCCN(CCC)C(=O)c1cc2c(=O)[nH]c3ccc(C)cc3c2s1` to `Cc1ccc(N=Nc2c(C)[nH][nH]c2=O)c(C)c1`, the “hERG current change (%, negative = inhibition) at 10uM” value falls from 26.3% to -1.31%.

First: CCOC(=O)c1c(Nc2ccccc2N)cc(C)nc1C
Second: Cc1cc(C)c(C#N)c(SCc2ccccc2C)n1
The “hERG current change (%, negative = inhibition) at 10uM” value of the first is lower: -13.9% for the first, 17.7% for the second.

Compared with `CCCCN(Cc1ccccc1)c1ncnc2nc[nH]c12`, `CCC1=NN(C(=O)COc2ccccc2)C(O)(c2ccc(Br)cc2)C1` (stereo not drawn) is lower in “hERG current change (%, negative = inhibition) at 10uM” value: 6.29% for the first, -28.6% for the second.

Going from `NC(=O)COc1cccc2cccnc12` to `Nc1nc(CCl)nc(Nc2cccc3ccccc23)n1`, the “hERG current change (%, negative = inhibition) at 10uM” value falls from 6.08% to -3.1%.

Compared with `COC(=O)c1cc(S(=O)(=O)Nc2c(C)cccc2C)cn1C`, `Cc1ccc(Cl)cc1N1CCN(C(=O)c2ccc(NS(=O)(=O)c3c(C)noc3C)cc2)CC1` is higher in “hERG current change (%, negative = inhibition) at 10uM” value: -3.98% for the first, 17.5% for the second.

Compared with `O=C(NNC(=O)c1ccc2[nH]c(=O)c(=O)[nH]c2c1)c1cccc(Br)c1`, `C=CCn1cccc(C(=O)Nc2ccc(F)cc2)c1=O` is lower in “hERG current change (%, negative = inhibition) at 10uM” value: 3.95% for the first, -24.8% for the second.

Compared with `CCCC(=O)Nc1ccc2c(c1)nc(CN1CCN(C(=O)OCC)CC1)n2CC`, `Cc1cccc(N2CCN(C(=O)CSCc3c(C)noc3C)CC2)c1C` is lower in “hERG current change (%, negative = inhibition) at 10uM” value: 9.54% for the first, -14.9% for the second.

First: O=C(NCc1ccccc1)c1cc(-c2ccncc2)nc2ccccc12
Second: COc1ccc(-c2cc(C(=O)NCc3ccco3)c3ccccc3n2)c(OC)c1
The “hERG current change (%, negative = inhibition) at 10uM” value of the first is lower: -34% for the first, -21% for the second.

First: O=C(C[n+]1ccccc1)N/N=C/c1ccc(Cl)cc1.[Cl-]
Second: Nc1ccccc1SC(C[N+](=O)[O-])c1ccccc1 (stereo not drawn)
The “hERG current change (%, negative = inhibition) at 10uM” value of the first is lower: -5.76% for the first, 3.79% for the second.

Going from `CN(C)/C=C(\C=O)c1onc(-c2ccccc2Cl)c1C#N` to `CCN(CC)c1ccc(/C=C/C(=O)C2C(=O)C=C(C)OC2=O)cc1` (stereo not drawn), the “hERG current change (%, negative = inhibition) at 10uM” value rises from 1.62% to 3.74%.

Compared with `Cc1c(CCC(=O)O)c(=O)oc2cc3occ(-c4ccccc4)c3cc12`, `CC(Sc1nc2ccccc2c(=O)n1CCc1ccc(S(N)(=O)=O)cc1)C(=O)NC(N)=O` (stereo not drawn) is higher in “hERG current change (%, negative = inhibition) at 10uM” value: -27.8% for the first, 10.1% for the second.

First: COC(=O)c1c(NC(=O)CSc2nnc(C)c(=O)[nH]2)sc(C)c1C
Second: Cc1cccc(NC(=O)CSCC(=O)N(C)Cc2ccc(Cl)c(Cl)c2)c1
The “hERG current change (%, negative = inhibition) at 10uM” value of the first is higher: 27.1% for the first, -14.7% for the second.

Compared with `COc1ccc(-c2noc(CCC(=O)N3CCN(c4cccc(C(F)(F)F)c4)CC3)n2)cc1`, `C/C(=C/c1ccccc1)C(=O)N1CCN(c2ccccc2F)CC1` is lower in “hERG current change (%, negative = inhibition) at 10uM” value: 7.75% for the first, -16.4% for the second.

Going from `CCN(CC(=O)Nc1c(F)cccc1F)C(=O)c1cccnc1Sc1ccccc1` to `CC(NC(=O)N(Cc1ccccc1)Cc1ccc2c(c1)OCO2)(C(F)(F)F)C(F)(F)F`, the “hERG current change (%, negative = inhibition) at 10uM” value falls from 15.5% to 7.8%.

Compared with `Cn1c(=O)[nH]c(=O)c2c1nc(N1CCNCC1)n2Cc1cccc2ccccc12`, `Cc1ccc2cc(CN(Cc3ccco3)C(=O)c3ccco3)c3nnnn3c2c1` is lower in “hERG current change (%, negative = inhibition) at 10uM” value: -16.4% for the first, -37% for the second.

Compared with `Br.COc1ccc(-c2nc(NC3=NCCCCC3)sc2C)cc1`, `COc1ccc(/C=C(/C#N)C(=O)Nc2ccc(C)cc2C)cc1C(=O)O` is higher in “hERG current change (%, negative = inhibition) at 10uM” value: -26.6% for the first, 19.4% for the second.

Compared with `CSC(=NC#N)N1CCN(c2cccc(Cl)c2)CC1`, `COC(=O)c1sccc1NC(=O)Nc1cccc(F)c1` is higher in “hERG current change (%, negative = inhibition) at 10uM” value: -30% for the first, 4.72% for the second.

Going from `CCOc1ccc(S(=O)(=O)Nc2nc3ccccc3nc2-n2ccc(=NC(=O)c3cccs3)cc2)cc1` to `Cc1nc(N)nc(OCC(F)(F)C(F)F)c1Br`, the “hERG current change (%, negative = inhibition) at 10uM” value falls from 5.88% to -16%.

`CCCCCCCCCOC(=O)C(CC(=O)O)N1CCOCC1` (stereo not drawn) was tested, and the “hERG current change (%, negative = inhibition) at 10uM” value was -1.34%.
